The densities may have been worked out from excess volumes.

The data set is described as follows: xn = mol fraction of the nth substance listed. Conditions: 298.15 K, 101.3 kPa.

Broadly, the mass density is the mass of a sample divided by its volume. Consider `CCCCCO` + CCOS(=O)(=O)[O-].CC[n+]1ccn(C)c1, for which the mass density (x1 = 1) turned out to be 813 kg/m3.

With `CCOS(=O)(=O)[O-].CC[n+]1ccn(C)c1` + CCCCCO, the mass density turned out to be 1238 kg/m3 (x2 = 0); 1198 kg/m3 (x2 = 0.1561); 1160 kg/m3 (x2 = 0.2862); 1118 kg/m3 (x2 = 0.4099); 1066 kg/m3 (x2 = 0.5411); 1029 kg/m3 (x2 = 0.6432). For the same compound, the mass density runs as follows: (x2 = 0.7205) 984 kg/m3; (x2 = 0.78) 950 kg/m3; (x2 = 0.8435) 916 kg/m3; (x2 = 0.936) 857 kg/m3; (x2 = 0.98) 833 kg/m3.

Compound `CCCCO` + CCOS(=O)(=O)[O-].CC[n+]1ccn(C)c1 came in with a mass density (x1 = 1) of 805.7 kg/m3.

Take `CCOS(=O)(=O)[O-].CC[n+]1ccn(C)c1` + CCCCCCCO: the mass density reads like this: (x2 = 0) 1238 kg/m3; (x2 = 0.029) 1229.1 kg/m3; (x2 = 0.0813) 1213.1 kg/m3; (x2 = 0.2898) 1140 kg/m3; (x2 = 0.5831) 1022.6 kg/m3; (x2 = 0.696) 972.3 kg/m3. The mass density by setting is: (x2 = 0.8236) 911.8 kg/m3; (x2 = 0.9012) 872.1 kg/m3; (x2 = 0.9579) 843.1 kg/m3.

Turning to `CCOS(=O)(=O)[O-].CC[n+]1ccn(C)c1` + CCCCCCCCCCO, the mass density (x2 = 0) is 1238 kg/m3; the mass density (x2 = 0.1568) is given as 1171.5 kg/m3; the mass density (x2 = 0.2555) is reported as 1129.8 kg/m3; the mass density (x2 = 0.3654) came to 1084.2 kg/m3; the mass density (x2 = 0.5215) came out at 1019.8 kg/m3; the mass density (x2 = 0.7774) worked out at 915.7 kg/m3. Also, the mass density was determined as 871.2 kg/m3 (x2 = 0.8874) and 844.4 kg/m3 (x2 = 0.9542).

As for `CCOS(=O)(=O)[O-].CC[n+]1ccn(C)c1` + CCCCO, the mass density (x2 = 0) was 1236.9 kg/m3; the mass density (x2 = 0.0734) is reported as 1221.7 kg/m3; the mass density (x2 = 0.1247) turned out to be 1210.4 kg/m3; the mass density (x2 = 0.1579) came to 1202.6 kg/m3; the mass density (x2 = 0.1874) is listed as 1195.4 kg/m3; the mass density (x2 = 0.2539) was 1178.1 kg/m3. Also, the mass density is recorded as 1161.7 kg/m3 (x2 = 0.3116); 1130.2 kg/m3 (x2 = 0.4114); 1092.9 kg/m3 (x2 = 0.5145); 1060.4 kg/m3 (x2 = 0.5936); 1024.4 kg/m3 (x2 = 0.6716); 969.3 kg/m3 (x2 = 0.7746). The compound also returned a mass density (x2 = 0.8577) of 917.2 kg/m3, a mass density (x2 = 0.9019) of 885.9 kg/m3 and a mass density (x2 = 0.9613) of 839.4 kg/m3.

Compound `CCCCCCCCO` + CCOS(=O)(=O)[O-].CC[n+]1ccn(C)c1 displayed a mass density (x1 = 1) of 821.7 kg/m3.

Take `CCOS(=O)(=O)[O-].CC[n+]1ccn(C)c1` + CCCCCCCCO: the mass density by setting is: (x2 = 0) 1238 kg/m3; (x2 = 0.2529) 1147.2 kg/m3; (x2 = 0.4759) 1056.9 kg/m3; (x2 = 0.6459) 984.3 kg/m3; (x2 = 0.748) 940.1 kg/m3.

For the compound `CCCO` + CCOS(=O)(=O)[O-].CC[n+]1ccn(C)c1, the mass density (x1 = 1) was found to be 799.5 kg/m3.

Consider `CCOS(=O)(=O)[O-].CC[n+]1ccn(C)c1` + CCCO, for which the mass density came to 1236.9 kg/m3 (x2 = 0); 1233.9 kg/m3 (x2 = 0.019); 1215.7 kg/m3 (x2 = 0.1203); 1181.1 kg/m3 (x2 = 0.2803); 1156.9 kg/m3 (x2 = 0.373); 1130.5 kg/m3 (x2 = 0.4597). This compound returned a mass density (x2 = 0.6043) of 1076.3 kg/m3; a mass density (x2 = 0.6802) of 1041 kg/m3; a mass density (x2 = 0.7586) of 998.2 kg/m3; a mass density (x2 = 0.8948) of 902.8 kg/m3; a mass density (x2 = 0.9595) of 843.5 kg/m3.

For the compound `CCCCCCCCCO` + CCOS(=O)(=O)[O-].CC[n+]1ccn(C)c1, the mass density was 1180.9 kg/m3 (x1 = 0.1763); 1061.5 kg/m3 (x1 = 0.4982); 970.6 kg/m3 (x1 = 0.7088); 855.2 kg/m3 (x1 = 0.9435); 824.2 kg/m3 (x1 = 1).

As for `CCOS(=O)(=O)[O-].CC[n+]1ccn(C)c1` + CCCCCCCCCO, under “x2 = 0”, the mass density is given as 1238 kg/m3.

Turning to `CCOS(=O)(=O)[O-].CC[n+]1ccn(C)c1` + CCCCCCO, the mass density by setting is: (x2 = 0) 1238 kg/m3; (x2 = 0.1386) 1198.2 kg/m3; (x2 = 0.2602) 1158.8 kg/m3; (x2 = 0.33) 1135.3 kg/m3; (x2 = 0.3963) 1111.8 kg/m3; (x2 = 0.5823) 1035.1 kg/m3. Besides, the mass density (x2 = 0.6807) came to 990.1 kg/m3; the mass density (x2 = 0.7586) is recorded as 951.9 kg/m3; the mass density (x2 = 0.8466) was found to be 905.6 kg/m3; the mass density (x2 = 0.92) came to 870.6 kg/m3; the mass density (x2 = 0.9678) is reported as 835.4 kg/m3.

The compound `CCCCCCO` + CCOS(=O)(=O)[O-].CC[n+]1ccn(C)c1 came in with a mass density (x1 = 1) of 815 kg/m3.

Regarding `CCCCCCCCCCO` + CCOS(=O)(=O)[O-].CC[n+]1ccn(C)c1, the mass density (x1 = 1) was found to be 826 kg/m3.

These data come from a compilation of properties of binary mixtures (doi:10.1007/s10953-008-9306-y).
